# Test results reported in PubChem BioAssay AID463173 (ICCB-Longwood Screening Facility, Harvard Medical School, 2010).
# Screen size: about 52,000 compounds; about 1,700 (3.3%) were called active. Rule as the data show it: active = survival mostly below about 52% (no sharp cut-off); inactive = mostly above about 56%. Some of the results follow.
# Test system: Wild type
# Assay: growth inhibition of S. aureus wild type versus tarO mutant, primary screen, teichoic acid synthesis inhibitors, RN4220, OD600 (AID 463173)
# Conditions: S. aureus RN4220 wild type/DeltatarO growth, OD600, 18 h, stronger effect = lower value, screened at 18.75 µg/mL (by protocol)
row,SMILES,survival
1,CCN(C(=O)C1CCN(S(=O)(=O)c2ccc3c(c2)CCCN3C(=O)C2CCC2)CC1)c1cccc(C)c1,inactive: 138%
2,Cc1ccc(NC(=O)Cn2c(=O)n(CCCCCC(=O)NCc3ccc(F)cc3)c(=O)c3sccc32)c(C)c1,inactive: 98%
3,Cc1c(Cl)cccc1NC(=O)c1cnc2sc(N3CCCC3)nn2c1=O,inactive: 74%
4,COCCN1Cc2cccc(C(=O)Nc3ccc(C)cc3C)c2C1=O,inactive: 80%
5,COC(=O)CNC(=O)C(Cc1ccccc1)NS(=O)(=O)c1ccc2c(c1)c(=O)n(C)c(=O)n2C (configuration not stated),inactive: 78%
6,Cc1c(C(=O)NCc2ccc(N(C)C)cc2)oc2c1-c1nn(Cc3cccc(Cl)c3)cc1CC2,inactive: 91%
7,O=C(COc1ccccc1)Nc1ccc(S(=O)(=O)N(Cc2ccccc2)c2ccccc2)cc1,inactive: 86%
8,COc1ccc(CCCc2n[nH]c(=S)o2)c(C)c1,inactive: 104%
9,Cc1cc2c(cc1S(=O)(=O)N1CCC(C)CC1)OCC(=O)N2,inactive: 86%
10,COc1ccc(-c2nc(-c3ccccc3)c(-c3ccccc3)[nH]2)cc1Br,inactive: 81%
11,Cc1ccc(-c2nnc(SCC(=O)N3CCc4ccccc43)o2)cc1,inactive: 84%
12,Cc1cc(C)cc(NC(=O)Cn2c(=O)oc3cc(S(=O)(=O)N4CCCC4)ccc32)c1,inactive: 158%
13,COc1ccc(S(=O)(=O)c2cn(C)c3cc(N4CCCC4)c(F)cc3c2=O)cc1,inactive: 69%
14,COc1cccc(CNC(=O)c2cnc(N3CCCC3)nc2C)c1,inactive: 73%
15,O=S(=O)(c1ccc2ccccc2c1)n1nc(-c2ccco2)nc1NCc1cccc(Cl)c1,inactive: 89%
16,Cc1ccc(CNC(=O)c2ccc3c(c2)N(Cc2ccccc2F)C(=O)c2ccccc2S3(=O)=O)cc1,inactive: 90%
17,O=C(O)c1cc(C2CC2)on1,inactive: 117%
18,Cc1ccc(C(C(=O)NC2CC2)N(C(=O)Cn2nnc(-c3cccs3)n2)c2cnc3ccccc3c2)o1 (configuration not stated),inactive: 121%
19,O=C1SCC(c2ccccc2)S1 (configuration not stated),inactive: 111%
20,CCOc1cc(CNCCSc2nnnn2-c2ccccc2)cc(Cl)c1OC,inactive: 85%
21,CC(C)Oc1ccc(CNS(=O)(=O)c2cnc(N)nc2)cc1,inactive: 111%
22,CN1CCN(C(CNC(=O)C(=O)Nc2ccc(F)cc2F)c2ccc3c(c2)OCO3)CC1 (configuration not stated),inactive: 66%
23,CCOc1ccc(CCNC(=O)Cn2nnc(-c3ccc(OC)c(OC)c3)n2)cc1OCC,inactive: 90%

row,SMILES,survival
1,Cc1ccc2nc(-c3ccc(NC(=O)COc4c(C)ccc(C)c4C)cc3)sc2c1,inactive: 62%
2,Cc1c(C(=O)O)nnn1-c1ccccc1,inactive: 100%
3,COc1cc(NC(=O)c2nnn(CC(=O)Nc3ccccc3)c2N)cc(OC)c1,inactive: 80%
4,CCCc1nn2c(=O)cc(COC(=O)c3ccc(NC(=O)C(C)Oc4ccccc4)cc3)nc2s1 (configuration not stated),inactive: 88%
5,c1ccc(C2=NN3COc4ccccc4C3C2)cc1 (configuration not stated),inactive: 92%
6,CCCCNc1nc(Oc2ccc(=O)n(C)n2)nc(N(C)C)n1,inactive: 83%
7,COc1ccc(S(=O)(=O)N2C3CCC2CC(NC(=O)NC2CCCCC2)C3)cc1 (configuration not stated),inactive: 98%
8,CSc1nc(-c2ccc(F)cc2)nc2c1Cc1c(CO)cnc(C)c1O2,inactive: 81%
9,O=C(NC1CCCCC1)c1ccc2c(c1)N(Cc1ccccc1)C(=O)c1ccccc1S2,inactive: 64%
10,O=C(CN1C(=O)C2(SCC(=O)N2c2ccccc2)c2ccccc21)NCc1ccccc1Cl (configuration not stated),inactive: 97%
11,COc1ccc(C(=O)c2cn(Cc3ccc(C)cc3)c3cc4c(cc3c2=O)OCO4)cc1,inactive: 132%
12,COc1cc(NC(=O)CCS(=O)(=O)c2nc(-c3cccs3)cc(C(F)(F)F)n2)cc(OC)c1OC,inactive: 78%
13,COc1ccccc1-c1noc(CSc2nc3ccc(C)cc3[nH]2)n1,inactive: 118%
14,O=C(CSc1cn(CC(=O)N2CCCCC2)c2ccccc12)Nc1ccccc1F,inactive: 89%
15,Cc1ccc2c(CC(=O)Nc3ccccc3C(F)(F)F)coc2c1C,inactive: 93%
16,CC(CNC(=O)C1CCN(Cc2cc3ccccc3n2Cc2ccccc2)CC1)c1ccccc1 (configuration not stated),inactive: 60%
17,Cc1c(Cl)cccc1NC(=O)CCn1c(=O)c2cccn2c2ccccc21,inactive: 77%
18,O=C(Nc1ccccc1Cl)c1cnsn1,inactive: 111%
19,CCOc1ccccc1NC(=O)CSc1nccn1-c1ccc(Cl)cc1,inactive: 80%
20,CSc1ccc(CCNC(=O)C2CCN(c3nc4ccccc4nc3C(F)(F)F)CC2)cc1,inactive: 73%
21,O=C(Cn1c(=O)n(Cc2ccc3c(c2)OCO3)c(=O)c2oc3ccccc3c21)Nc1ccccc1,inactive: 73%
22,CCc1ccc(-c2nc3ccc(Br)cc3c(C(=O)O)c2C)s1,inactive: 55%
23,Cc1ccccc1CNC(=O)C1CCN(c2nnc(C)c3c(C)n(-c4ccccc4)nc23)CC1,inactive: 97%

row,SMILES,survival
1,COC(=O)c1ccc(NC(=O)c2c(NCc3ccc(C)o3)sc3c2CCCC3)cc1,inactive: 77%
2,CCn1c(C(=O)NCc2cccc(Br)c2)cc2oc3ccccc3c21,active: 7%
3,CN1C(=O)C2(c3ccccc31)N(c1ccccc1)C(=O)CS2(=O)=O (configuration not stated),inactive: 77%
4,CCc1nnc(NC(=O)c2cc(=O)c3cc(C)c(C)cc3o2)s1,inactive: 74%
5,COc1cc(-c2noc(-c3cc4cc(F)ccc4oc3=O)n2)cc(OC)c1OC,inactive: 99%
6,CC(C)CC(C(=O)O)n1c(O)c(C2=c3ccccc3=NC2=O)sc1=S (configuration not stated),inactive: 112%
7,Cc1cc(C)c2oc(C(=O)Nc3sc4c(c3C(=O)NCc3ccco3)CCC4)cc(=O)c2c1,inactive: 87%
8,CC(C(=O)O)n1ncc2ccccc2c1=O (configuration not stated),inactive: 102%
9,Cc1ccc(NC(=O)/C=C/c2ccccc2)c(Br)c1,inactive: 154%
10,COc1ccc(-c2nc3scc(CCNS(=O)(=O)c4c(C)noc4C)n3n2)cc1,inactive: 73%
11,Cc1ccc(C)c(CN2C(=O)c3ccccc3S(=O)(=O)c3ccc(C(=O)Nc4ccccc4C(F)(F)F)cc32)c1,inactive: 99%
12,CN1CCN(C(=O)C(=O)Nc2c3c(nn2-c2ccc(F)cc2)CSC3)CC1,inactive: 81%
13,Cc1ccc(S(=O)(=O)NCCc2nnc3ccc(SCc4ccccc4C)nn23)cc1,inactive: 84%
14,COc1ccc(N2CCN(C(=O)Cn3cnc4nc5c(cc4c3=O)CCCC5)CC2)cc1,inactive: 78%
15,CCOC(=O)Cc1csc(NC(=O)CSc2nnc(-c3ccc(F)cc3)o2)n1,inactive: 107%
16,CCOC(=O)c1cccc(NC(=O)c2cc(CN3CCCC3)on2)c1,inactive: 75%
17,COc1ccc(/C=C\c2onc(C)c2S(=O)(=O)N2CCC(C(=O)Nc3ccccc3OC)CC2)cc1,inactive: 116%
18,C/C=N/NC(=O)c1ccccc1,inactive: 97%
19,O=C1NC(c2ccc(Cl)cc2)Nc2ccccc21 (configuration not stated),inactive: 113%
20,COc1ccc(OC)c(NC(=O)CSc2c3c(nc4ccccc24)CCCC3)c1,inactive: 86%
21,CC1CCN(S(=O)(=O)c2ccc3c(c2)N(CC(=O)NC(C)C)C(=O)CS3)CC1,inactive: 82%
22,Cc1ccc(Cn2cccc2C2=NC(C)(C)CO2)cc1,inactive: 28%
23,CC(C)Oc1ccc(C(=O)N2CCCC2C(=O)O)cc1 (configuration not stated),inactive: 120%

row,SMILES,survival
1,CCS(=O)(=O)N1N=C(c2ccc(C)cc2)CC1c1cc2ccc(OC)cc2nc1Cl (configuration not stated),inactive: 75%
2,N#CCC(c1ccccc1)c1ccc2c(c1)OCO2 (configuration not stated),inactive: 126%
3,COc1ccccc1OC(C)C(=O)NCC1(N2CCOCC2)CCCCC1 (configuration not stated),inactive: 87%
4,Cc1ccc(OC(=O)c2cc(-c3ccc4c(c3)OCCO4)on2)c(C)c1,active: -6%
5,CCc1nn(CCCC(=O)NCc2ccccc2Br)c(=O)c2cc3occc3n12,inactive: 80%
6,CCCC(=O)N1c2ncnn2C2(CCCCC2)[C@@H]2CCCC[C@@H]21,inactive: 81%
7,COc1ccc(NC(=O)CCNS(=O)(=O)c2cccc3nonc23)cc1,inactive: 68%
8,Cc1ccc(OCC(=O)NCC2(N3CCN(C)CC3)CCCCC2)cc1C,inactive: 91%
9,COc1ccccc1CNc1ccc(-c2nc(C(C)C)no2)cc1[N+](=O)[O-],inactive: 71%
10,Cc1c(Cl)ccc2sc(N3CCN(C(=O)c4ccco4)CC3)nc12,inactive: 73%
11,Cc1ccc(CCNC(=O)CN(c2ccc(C)cc2)S(=O)(=O)c2c(C)noc2C)cc1,inactive: 88%
12,Cc1cc(C)c2c(CC(=O)N(Cc3ccc(N(C)C)cc3)Cc3ccco3)coc2c1,inactive: 62%
13,O=C(CSc1nc2c(c(=O)[nH]1)CCC2)Nc1ccccc1F,inactive: 78%
14,CN(C)c1ccc(CNc2nc(-c3ccco3)nn2S(=O)(=O)c2ccc3ccccc3c2)cc1,inactive: 85%
15,CCOc1ccc(CNC(=O)c2cc3oc4ccccc4c3n2C)cc1,inactive: 132%
16,Cc1ccc(C)c(NC(=O)Cn2cc(C(=O)c3ccncc3)c(=O)c3cc(F)ccc32)c1,inactive: 82%
17,COc1ccc(NC(=O)Cn2cnc3sc(C)c(S(=O)(=O)N4CCN(C)CC4)c3c2=O)cc1OC,inactive: 148%
18,CCOC(=O)C1CCN(C(c2ccccc2OC)c2c(O)cc(C)n(CCOC)c2=O)CC1 (configuration not stated),inactive: 70%
19,COc1cccc(-c2nc(-c3ccc(-c4ccccc4)nc3OC)no2)c1,active: 2%
20,Cc1ccc(C(=O)Nc2ccc(Cl)c(-c3nc4ncccc4o3)c2)c(C)c1,inactive: 62%
21,Cc1ccccc1OCc1ccc(-c2nc(C#N)c(NCCCN(C)C)o2)o1,inactive: 85%
22,Cc1ccccc1-c1nc(CNC(=O)Nc2ccccc2)c(C)o1,inactive: 68%
23,CCOC(=O)CN1CCOCCN(CC(=O)OCC)CCOCC1,inactive: 102%
